Measured values: PubChem BioAssay (NCI)
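In this assay, cells in 96-well plates receive the compound at five concentrations for 48 hours. Endpoints are linearly interpolated between the surrounding concentrations. GI50: concentration for 50% inhibition of growth. Definition used: TGI = concentration required for complete inhibition of growth.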

The compounds below were run on NCI-H322M lung (assay: NCI tumour cell line growth inhibition, 48 h).

SMILES	GI50	TGI
Cn1cc(NC(=O)c2cc(NC(=O)c3ccc(C#Cc4ccccc4)cc3)cn2C)cc1C(=O)NCCCN1CCOCC1	> 32.5 µM	> 32.5 µM
O=C(Cc1ccc2c(c1)CN(C1CCC(=O)NC1=O)C2=O)NCCc1ccccc1 (stereo not given)	0.047 µM	5.77 µM
O=C(CNc1nc(-c2ccccc2)cs1)Nc1ccc(Cl)cc1	1.28 µM	2.54 µM
Cc1ccccc1Nc1nnc(-c2c[nH]c3ccccc23)o1	6.12 µM	> 100 µM
CCN1C(=O)N(CC)C2NNC(Sc3c(C(=O)O)c4ccccc4n(CCC(C)C)c3=O)=NC21 (stereo not given)	6.03 µM	30.1 µM
